Laboratory results reported in patent publication US20260216175A1, “COMPLEMENT INHIBITION” (Apellis Pharmaceuticals, Inc., priority 2023, published 2026).

These molecules were tested against C3 convertase (CVF:Bb) (Homo sapiens, UniProt P00751) (assay: biochemical).

SMILES	IC50 [nM]
COc1cc(C)c2[nH]ccc2c1CN1CCN(C)CC[C@H]1c1ccc(C(=O)O)c(O)c1	37.1
COc1cc(C)c2[nH]ccc2c1CN1CCN(CC(F)F)C[C@H]1c1ccc(C(=O)O)c(NC2COC2)c1	273
COc1cc(C)c2[nH]ccc2c1CN1CCN(CC(F)F)C[C@@H]1c1ccc(C(=O)O)c2c1OCCN2	20800
COc1cc(C)c2[nH]ccc2c1CN1CC(C)N(C)C[C@H]1c1ccc(C(=O)O)cc1 (some centres unmarked)	1760
COc1cc(C)c2[nH]ccc2c1CN1CCCN(C)CC1c1ccc(C(=O)O)cc1 (centres unmarked)	2260
COc1cc(C)c2[nH]ccc2c1CN1C[C@@H]2C[C@@H]3C[C@@H]3N2C[C@H]1c1ccc(C(=O)O)cc1	457
COc1cc(C)c2[nH]ccc2c1CN1CCCN(CC(F)(F)F)C[C@H]1c1ccc(C(=O)O)cc1	33.5
COc1cc(C)c2[nH]ccc2c1CN1CCN(CC(F)F)C[C@H]1c1ccc(C(=O)O)c(NCC2COC2)c1	400
COc1cc(C)c2[nH]ccc2c1CN1CCN(CC(F)F)CC1c1ccc(C(=O)O)c(N)c1 (centres unmarked)	103
COc1cc(C)c2[nH]ccc2c1CN1C[C@@H]2C[C@H]3C[C@H]3N2C[C@@H]1c1ccc(C(=O)O)cc1	12000
COc1cc(C)c2[nH]ccc2c1CN1CCN(CC(F)F)CC1c1ccc(C(=O)O)c(C(F)F)c1 (centres unmarked)	857
COc1cc(C)c2[nH]ccc2c1CN1CCN(CC(F)F)CC1c1ccc(C(=O)O)c(CO)c1 (centres unmarked)	283
COc1cc(C)c2[nH]ccc2c1CN1CC[C@H]2CCCN2CC1c1ccc(C(=O)O)cc1 (some centres unmarked)	2370
COc1cc([C@H]2CN(CC(F)F)CCN2Cc2c(OC)cc(C)c3[nH]ccc23)ccc1C(=O)O	7020
COc1cc(C)c2[nH]ccc2c1CN1CCN(CCC(F)(F)F)CC1c1ccc(C(=O)O)c(O)c1 (centres unmarked)	117
COc1cc(C)c2[nH]ccc2c1CN1C[C@H]2CCCN2C[C@H]1c1ccc(C(=O)O)cc1	3820
COc1cc(C)c2[nH]ccc2c1CN1CCN(CC(F)F)C[C@@H]1c1ccc(C(=O)O)c(CO)c1	4190
COc1cc(C)c2[nH]ccc2c1CN1CCN(CCC(F)(F)F)C[C@H]1c1ccc(C(=O)O)c(N(C)C)c1	637
COc1cc(C)c2[nH]ccc2c1CN1CCN(CC(F)F)CC1c1ccc(C(=O)O)c2c1OCC(=O)N2 (centres unmarked)	989
COc1cc(C)c2[nH]ccc2c1CN1CCN(CCC(F)(F)F)C[C@@H]1c1ccc(C(=O)O)c(N)c1	10200
COc1cc(C)c2[nH]ccc2c1CN1CCN(CCC(F)(F)F)C[C@H]1c1ccc(C(=O)O)c(C#N)c1	766

SMILES	IC50 [nM]
COc1cc(C)c2[nH]ccc2c1CN1CCN(CC(F)F)CC1c1ccc(C(=O)O)c2[nH]ccc12 (centres unmarked)	340
COc1cc(C)c2[nH]ccc2c1CN1CCN(CC(F)F)C[C@H]1c1ccc(C(=O)O)c(N)c1	58.2
COc1cc(C)c2[nH]ccc2c1CN1CCN(C)CC[C@H]1c1ccc(C(=O)O)cc1	70.1
COc1cc(C)c2[nH]ccc2c1CN1CCN(CC(F)F)C[C@H]1c1ccc(C(=O)O)c(CO)c1	262
COc1cc(C)c2[nH]ccc2c1CN1CCN(CC(F)F)C[C@@H]1c1ccc(C(=O)O)c(NS(C)(=O)=O)c1	16300
COc1cc(C)c2[nH]ccc2c1CN1C[C@H]2C[C@H](F)CN2C[C@H]1c1ccc(C(=O)O)cc1	223
COc1cc(C)c2[nH]ccc2c1CN1CCN(CC(F)F)C[C@@H]1c1ccc(C(=O)O)c(NCC2COC2)c1	68200
COc1cc(C)c2[nH]ccc2c1CN1CCN(CC(F)(F)F)CC1c1ccc(C(=O)O)c(C)c1 (centres unmarked)	888
COc1cc([C@@H]2CN(CC(F)F)CCN2Cc2c(OC)cc(C)c3[nH]ccc23)ccc1C(=O)O	1130
COc1cc(C)c2[nH]ccc2c1CN1CCN(C)C(C)CC1c1ccc(C(=O)O)cc1 (centres unmarked)	8530
COc1cc(C)c2[nH]ccc2c1CN1CCN(CCC(F)(F)F)C[C@H]1c1ccc(C(=O)O)c(NCC2CC2)c1	461
COc1cc(C)c2[nH]ccc2c1CN1CCN(CCC(F)(F)F)C[C@@H]1c1ccc(C(=O)O)c(N2CCCC2=O)c1	7030
COc1cc(C)c2[nH]ccc2c1CN1CCN(CC(F)F)C[C@@H]1c1ccc(C(=O)O)c(Cl)c1	4080
COc1cc(Cl)c2[nH]ccc2c1CN1CCN(CC(F)F)CC1c1ccc(C(=O)O)c(C)c1 (centres unmarked)	9340
COc1cc(C)c2[nH]ccc2c1CN1CCCN(CC(F)(F)F)CC1c1ccc(-c2nn[nH]n2)cc1 (centres unmarked)	176
COc1cc(C)c2[nH]ccc2c1CN1CCN(CCC(F)(F)F)C[C@@H]1c1ccc(C(=O)O)c(C#N)c1	54900
COc1cc(C)c2[nH]ccc2c1CN1CCN(CC(F)F)C[C@H]1c1ccc(C(=O)O)c(Cl)c1	497
COc1cc(C)c2[nH]ccc2c1CN1C[C@@H]2CC[C@H](C)N2C[C@@H]1c1ccc(C(=O)O)cc1	12800
COc1cc(C)c2[nH]ccc2c1CN1CCN(CCC(F)(F)F)C[C@H]1c1ccc(C(N)=O)c(N2CCCC2=O)c1	17600
COc1cc(C)c2[nH]ccc2c1CN1CCN(CC(F)F)C[C@@H]1c1ccc(C(=O)O)c(N)n1	20400
COc1cc(C)c2[nH]ccc2c1CN1CCN(CCC(F)(F)F)C[C@H]1c1ccc(C(=O)O)c(N2CCCC2=O)c1	1240

SMILES	IC50 [nM]
COc1cc(C)c2[nH]ccc2c1CN1CCN(CCC(F)(F)F)CC1c1ccc(C(N)=O)c(C#N)c1 (centres unmarked)	23400
COc1cc(C)c2[nH]ccc2c1CN1CCN(CC(F)F)CC1c1ccc(C(=O)O)c(O)c1 (centres unmarked)	265
COc1cc(C)c2[nH]ccc2c1CN1CCN(CC(F)F)C[C@H]1c1cnc(C(=O)O)c(N)c1	2280
COc1cc(C)c2[nH]ccc2c1CN1C[C@@H]2CC(F)(F)CN2C[C@H]1c1ccc(C(=O)O)c(O)c1	25200
COc1cc(C)c2[nH]ccc2c1CN1CCN(CC(F)F)CC1c1ccc(C(=O)O)c(N[C@H](C)C(F)(F)F)c1 (some centres unmarked)	1160
COc1cc(C)c2[nH]ccc2c1CN1CCN(CCC(F)(F)F)C[C@H]1c1ccc(C(=O)O)c(NC2CC2)c1	234
COc1cc(C)c2[nH]ccc2c1CN1CCN(CC(F)F)C[C@H]1c1ccc(C(=O)O)c(NCC(F)(F)F)c1	1090
COc1cc(C)c2[nH]ccc2c1CN1C[C@H]2C[C@H](F)CN2C[C@@H]1c1ccc(C(=O)O)cc1	20700
COc1cc(C)c2[nH]ccc2c1CN1CCN(CC(F)F)C[C@H]1c1ccc(C(=O)O)c(C(F)F)c1	324
COc1cc(C)c2[nH]ccc2c1CN1C[C@H]2CCCCN2C[C@@H]1c1ccc(C(=O)O)cc1	4190
COc1cc(C)c2[nH]ccc2c1CN1CCCN(CCF)CC1c1ccc(C(=O)O)cc1 (centres unmarked)	291
COc1cc([C@@H]2CN(CCC(F)(F)F)CCN2Cc2c(OC)cc(C)c3[nH]ccc23)ccc1C(=O)O	267
COc1cc(C)c2[nH]ccc2c1CN1CCN(CC(F)(F)F)CC1c1ccc(C(=O)O)c(O)c1 (centres unmarked)	385
COc1cc(C)c2[nH]ccc2c1CN1C[C@@H]2C[C@@H](F)CN2C[C@H]1c1ccc(C(=O)O)cc1	19000
COc1cc(C)c2[nH]ccc2c1CN1C[C@@H]2C[C@@H]3C[C@@H]3N2C[C@@H]1c1ccc(C(=O)O)cc1	2080
COc1cc(C)c2[nH]ccc2c1CN1CCN(CC(F)F)C[C@@H]1c1ccc(C(=O)O)c(NC2CCC2)c1	57100
COc1cc(C)c2[nH]ccc2c1CN1CCN(CC(F)F)C[C@H]1c1ccc(C(=O)O)c(Nc2cnn(C)c2)c1	531
COc1cc(C)c2[nH]ccc2c1CN1CCN(CC(F)(F)F)C[C@@H]1c1ccc(C(=O)O)c(N)c1	9630
COc1cc(C)c2[nH]ccc2c1CN1CCN(CC(F)F)C[C@H]1c1ccc(C(=O)O)c(OC2COC2)c1	2180
COc1cc(C)c2[nH]ccc2c1CN1CCN(CCC(F)(F)F)C[C@@H]1c1ccc(C(=O)O)c(NCC2CC2)c1	34900
CCNc1cc(C2CN(CC(F)F)CCN2Cc2c(OC)cc(C)c3[nH]ccc23)ccc1C(=O)O (centres unmarked)	82.7

SMILES	IC50 [nM]
COc1cc(C)c2[nH]ccc2c1CN1CCN(CCC(F)(F)F)C[C@H]1c1ccc(C(N)=O)c(N)n1	37500
COc1cc(C)c2[nH]ccc2c1CN1CCN(C)CC1c1ccc(C(N)=O)c(F)c1 (centres unmarked)	2330
COc1cc(C)c2[nH]ccc2c1CN1CCN(CC(F)F)C[C@H]1c1ccc(C(=O)O)c(O)n1	1840
COc1cc(C)c2[nH]ccc2c1CN1C[C@@H]2CC[C@@H](C)N2CC1c1ccc(C(=O)O)cc1 (some centres unmarked)	2470
COc1cc(C)c2[nH]ccc2c1CN1CCN(CC(F)F)C[C@H]1c1ccc(C(=O)O)c(NC2CC(F)(F)C2)c1	808
COc1cc(C)c2[nH]ccc2c1CN1CCN(CCC(F)(F)F)C[C@H]1c1ccc(C(=O)O)c(Cl)c1	645
COc1cc(C)c2[nH]ccc2c1CN1CCN(CCC(F)(F)F)C[C@H]1c1ccc(C(=O)O)c(N)n1	249
COc1cc(C)c2[nH]ccc2c1CN1CCCN(CC(F)(F)F)CC1c1ccc(C(=O)O)cc1 (centres unmarked)	53.2
COc1cc(C)c2[nH]ccc2c1CN1CCN(CC(F)F)C[C@@H]1c1ccc(C(=O)O)c(NC2CC(F)(F)C2)c1	29900
COc1cc(C)c2[nH]ccc2c1CN1CCN(CC(F)F)C[C@H]1c1ccc(C(=O)O)c(NC(C)=O)c1	153
COc1cc(C)c2[nH]ccc2c1CN1CCN(CCC(F)(F)F)C[C@@H]1c1ccc(C(N)=O)c(N)n1	102000
COc1cc(C)c2[nH]ccc2c1CN1CCN(CCC(F)(F)F)C[C@@H]1c1ccc(C(=O)O)c(NC2CC2)c1	17200
COc1cc(C)c2[nH]ccc2c1CN1CCN(C)CC[C@H]1c1ccc(C(=O)NS(C)(=O)=O)cc1	76
COc1cc(C)c2[nH]ccc2c1CN1CCN(CC(F)F)C[C@H]1c1ccc(C(=O)O)c(NS(C)(=O)=O)c1	81.7
CNc1cc(C2CN(CC(F)F)CCN2Cc2c(OC)cc(C)c3[nH]ccc23)ccc1C(=O)O (centres unmarked)	263
COc1cc(C)c2[nH]ccc2c1CN1CCN(CCC(F)(F)F)C[C@H]1c1ccc(C(=O)O)c(N)c1	12.5
COc1cc(C)c2[nH]ccc2c1CN1CCN(CC(F)F)C[C@@H]1c1ccc(C(=O)O)c(NCC(F)(F)F)c1	77600
CCN1CC[C@@H](c2ccc(C(=O)O)cc2)N(Cc2c(OC)cc(C)c3[nH]ccc23)CC1	149
COc1cc(C)c2[nH]ccc2c1CN1C[C@@H]2C[C@H](F)CN2C[C@H]1c1ccc(C(=O)O)cc1	574
COc1cc(C)c2[nH]ccc2c1CN1CCN(C)C(C(F)(F)F)CC1c1ccc(C(=O)O)cc1 (centres unmarked)	34300
